Measured values from the supplement of paper PMC8183993.
Where “and” joins values, the source holds several entries; their conditions need not be identical. Identical values can stand only once. Counter-ions that a name gives are not always drawn. ± gives the standard deviation of the averaged measurements. In all, about 3,100 compounds were measured (“mean cytoplasmic OPP incorporation (global translation) relative to DMSO”: median about 100, lowest 2% from about 56 on). Some of the results follow.

Test system: U2OS
Test: mean cytoplasmic OPP incorporation (global translation) relative to DMSO (% of DMSO); higher = more protein synthesis
Conditions: 10 µM; 24 h
Method: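 Primary image-based screen in U2OS cells: compounds at 10 uM for 24 h, then a 1 h o-propargyl-puromycin (OPP) pulse, click labelling, and high-throughput microscopy. Mean cytoplasmic OPP intensity and nuclei count were normalised to DMSO wells within each plate (DMSO = 100) and averaged over triplicate plates.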

| Structure (SMILES) | mean cytoplasmic OPP incorporation |
| --- | --- |
| C=CCNc1ncnc2ccc(Br)cc12 | 105 |
| OCC(CO)N[C@H]1C[C@](O)(CO)[C@@H](O)[C@H](O)[C@H]1O [Voglibose] | 98 |
| CCCCC(=O)N(Cc1ccc(-c2ccccc2-c2nnn[nH]2)cc1)[C@H](C(=O)O)C(C)C [Valsartan (Diovan)] | 99.6 |
| CC(=O)[C@H]1[C@H](C#N)C[C@H]2[C@@H]3CC=C4C[C@@H](O)CC[C@]4(C)[C@H]3CC[C@@]21C [Pregnenolone-16(alpha)-carbonitrile] | 98.2 |
| OC(CCN1CCCCC1)(c1ccccc1)c1ccccc1 [Pridinol methanesulfonate salt] | 110 |
| COc1cc(Nc2ncc3c(n2)-c2ccc(Cl)cc2C(c2c(F)cccc2OC)=NC3)ccc1C(=O)O [MLN8237 (Alisertib)] | 100 |
| CCc1ccc(/C=C2/SC(=S)NC2=O)cc1 | 103 |
| Cc1ccc(Nc2nccc(N(C)c3ccc4c(C)n(C)nc4c3)n2)cc1S(N)(=O)=O [Pazopanib HCl] | 116 |
| Cc1ccc(Nc2nccc(N(C)c3ccc4c(C)n(C)nc4c3)n2)cc1S(N)(=O)=O [Pazopanib] | 113 |
| CC(=Nc1ccccc1N)c1c(C)cc(=O)n(O)c1O | 95.7 |
| CCN(CC)CCNC(=O)c1cc(Br)c(N)cc1OC [Bromopride] | 94 |
| O=c1cc(N2CCOCC2)oc2c(-c3ccccc3)cccc12 | 96.7 and 91.7 |
| CN1c2ccccc2C(=O)N2CCc3c([nH]c4ccccc34)C21 (stereo in doubt) [Evodiamine (Isoevodiamine)] | 94 |
| Nc1cc(C(F)(F)F)c(-c2cc(N3CCOCC3)nc(N3CCOCC3)n2)cn1 | 73.6 |
| Cc1c(C(=O)Nc2ccc(N3C[C@@H](C)O[C@@H](C)C3)nc2)cccc1-c1ccc(OC(F)(F)F)cc1 [LDE225 (NVP-LDE225, Erismodegib)] | 104 |
| Cc1ccc(Sc2cncc3sc(C(N)=O)cc23)cc1 | 100 |
| CC(C)NNC(=O)c1ccncc1 [Iproniazide phosphate] | 92 |
| N[C@H](C(=O)O)c1ccc(C(=O)O)c(O)c1 [(S)-4-Carboxy-3-hydroxyphenylglycine] | 107 |
| O=C(O)c1cc(=O)c2ccccc2[nH]1 [Kynurenic acid] | 97.6 |
| Cc1cnc(NC(=O)Nc2cc(Br)c(C)cc2OC[C@@H]2CNCCO2)cn1 | 45.6 |
| O=C(Nc1ccccc1)N1CCN(c2nc(-c3ccccc3)ns2)CC1 | 110 |
| CC(C)SC(=N)N [S-Isopropylisothiourea hydrobromide] | 102 |
| CC1(COc2ccc(CC3SC(=O)NC3=O)cc2)CCCCC1 (configuration not stated) [Ciglitazone] | 99.8 ± 3.3 |
| CN(C)CCc1c[nH]c2ccc(CS(=O)(=O)N3CCCC3)cc12 [Almotriptan malate (Axert)] | 99.7 |
| Cn1nc(C(C)(C)C)cc1C(=O)N[C@@H](Cc1cccc(Cl)c1)C(=O)NCC#N [Cathepsin Inhibitor 1] | 99.9 |
| CN(c1ncccc1CNc1nc(Nc2ccc3c(c2)CC(=O)N3)ncc1C(F)(F)F)S(C)(=O)=O | 62.8 and 60 |

| Structure (SMILES) | mean cytoplasmic OPP incorporation |
| --- | --- |
| CCCCCCCCOc1ccccc1C(=O)Nc1ccc(C(=O)OCC[N+](C)(CC)CC)cc1 [Otilonium Bromide] | 110 |
| CN1CCCN(C(=O)c2cccc(-c3ccc(/C=C4/C(=O)Nc5ccc(Cl)cc54)o3)c2)CC1 | 55.4 |
| CN1CCN2c3ccccc3Cc3ccccc3C2C1 (configuration not stated) [Mianserin hydrochloride] | 96.9 |
| CN1CCN2c3ccccc3Cc3ccccc3C2C1 (configuration not stated) [Mianserine hydrochloride] | 103 |
| N[C@@H](Cc1ccc(O)c(O)c1)C(=O)O [Levodopa] | 98.9 |
| CCS(=O)(=O)N(C)[C@H]1c2cc(C#N)ccc2OC(C)(C)[C@@H]1O (racemic) [Chromanol 293B] | 96.1 |
| O=C(O)CCC(=O)c1ccc(-c2ccccc2)cc1 [Fenbufen] | 104 |
| O=C1c2c(O)ccc(O)c2C(=O)c2c(NCCNCCO)ccc(NCCNCCO)c21 [Mitoxantrone dihydrochloride] | 20.9 |
| CCOC(=O)C1=C(C)NC(C)=C(C(=O)OC)C1c1cccc(Cl)c1Cl (configuration not stated) [Felodipine] | 103 |
| Cc1nc2sccn2c(=O)c1CCN1CCC(=C(c2ccc(F)cc2)c2ccc(F)cc2)CC1 [Ritanserin] | 99.7 |
| C[C@H](CCC(=O)O)[C@H]1CC[C@H]2[C@@H]3C(=O)C[C@@H]4CC(=O)CC[C@]4(C)[C@H]3CC(=O)[C@]12C [Dehydrocholic acid] | 103 |
| Cc1oc(S(=O)(=O)N2CCCCC2)cc1NC(=O)Nc1ccccc1 | 102 |
| C[N+](C)(C)CCOC(N)=O [Carbachol] | 98.4 |
| CC(C)(C)NC[C@H](O)COc1cccc2c1CCCC2=O [(-) -Levobunolol hydrochloride] | 110 |
| CC(C)c1cc(C(C)C)c(CC(=O)NS(=O)(=O)Oc2c(C(C)C)cccc2C(C)C)c(C(C)C)c1 [Avasimibe (CI-1011)] | 101 |
| COC(=O)/C=C/C(=O)OC [Dimethyl Fumarate] | 101 |
| Nc1ncn(C2OC(CO)C(O)C2O)c(=O)n1 (configuration not stated) [Azacytidine-5] | 99.4 |
| CCN1C(=O)C=CC1=O [N-Ethylmaleimide] | 103 ± 6.4 |
| O=C(NC(Cc1cc(=O)[nH]c2ccccc12)C(=O)O)c1ccc(Cl)cc1 (configuration not stated) [Rebamipide] | 107 |
| CC(NCCc1ccc(O)cc1)C(O)c1ccc(O)cc1 (configuration not stated) [Ritodrine hydrochloride] | 105 |
| C[N+](C)(CCOc1ccccc1)Cc1ccccc1.O=C([O-])c1cc2ccccc2cc1O [Bephenium hydroxynaphthoate] | 99 |
| C[C@H](Nc1ncnc2nc[nH]c12)c1cc2cccc(Cl)c2c(=O)n1-c1ccccc1 | 86.4 |
| C[C@H](Nc1ncnc2nc[nH]c12)c1cc2cccc(Cl)c2c(=O)n1-c1ccccc1 [Duvelisib (IPI-145, INK1197)] | 82.9 |
| NC1CCN(c2c(F)cc3c(=O)c(C(=O)O)cn(C4CC4)c3c2Cl)C1 (configuration not stated) [Clinafloxacin] | 95.8 |
| CCC1(C)CC(=O)NC1=O (configuration not stated) [Ethosuximide] | 102 |
| CC(C)(O)CC(=O)NCCn1ccc2ncnc(Nc3ccc(Oc4cccc(C(F)(F)F)c4)c(Cl)c3)c21 | 110.5 ± 0.47 |
